# Laboratory results: PubChem BioAssay AID504332 (National Center for Advancing Translational Sciences (NCATS), 2011)
# Where “and” joins values, the source holds several entries; their conditions need not be identical. Equal values may be shown once. In all, about 350,000 compounds went through this assay and about 31,000 (8.9%) were called active. Inconclusive means that the source gave no clear call. Such entries were picked first, then a sample of the others. Calls come from the whole dose curve; as a rule, active = well fitted inhibition curve with a large enough effect; inconclusive = small, poorly fitted or top-dose-only effect; inactive = no such curve, though single readings can be large or run the other way. Potencies of inconclusive entries are doubtful fits and often do not repeat. The source holds several records for some structures; these can differ, active in one and inactive in another.
# Molecular target: Histone-lysine N-methyltransferase EHMT2 (Homo sapiens) (UniProt Q96KQ7)
# Assay: qHTS Assay for Inhibitors of Histone Lysine Methyltransferase G9a; note: nearly all actives have a fitted effect of over 75% in size
# Settings: G9a H3K9 monomethylation, AlphaScreen, 2 h; activity, negative = inhibition: at 59 µM (top of the series) unless noted
# How it was run: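 G9a (20 nM) was preincubated 15 min with compound, then reacted 2 h at room temperature with 500 nM biotin-H3K9 peptide and 20 µM SAM. Monomethyl-H3K9 detected by AlphaScreen using anti-H3K9me1 antibody.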
# % is set by controls: 0 for no effect and ±100 for the full control effect; potency is the fitted concentration of half-maximal effect; tags give direction and shape of the fitted curve.
# Sequence of UniProt Q96KQ7 (Q96KQ7 whole entry, looked up): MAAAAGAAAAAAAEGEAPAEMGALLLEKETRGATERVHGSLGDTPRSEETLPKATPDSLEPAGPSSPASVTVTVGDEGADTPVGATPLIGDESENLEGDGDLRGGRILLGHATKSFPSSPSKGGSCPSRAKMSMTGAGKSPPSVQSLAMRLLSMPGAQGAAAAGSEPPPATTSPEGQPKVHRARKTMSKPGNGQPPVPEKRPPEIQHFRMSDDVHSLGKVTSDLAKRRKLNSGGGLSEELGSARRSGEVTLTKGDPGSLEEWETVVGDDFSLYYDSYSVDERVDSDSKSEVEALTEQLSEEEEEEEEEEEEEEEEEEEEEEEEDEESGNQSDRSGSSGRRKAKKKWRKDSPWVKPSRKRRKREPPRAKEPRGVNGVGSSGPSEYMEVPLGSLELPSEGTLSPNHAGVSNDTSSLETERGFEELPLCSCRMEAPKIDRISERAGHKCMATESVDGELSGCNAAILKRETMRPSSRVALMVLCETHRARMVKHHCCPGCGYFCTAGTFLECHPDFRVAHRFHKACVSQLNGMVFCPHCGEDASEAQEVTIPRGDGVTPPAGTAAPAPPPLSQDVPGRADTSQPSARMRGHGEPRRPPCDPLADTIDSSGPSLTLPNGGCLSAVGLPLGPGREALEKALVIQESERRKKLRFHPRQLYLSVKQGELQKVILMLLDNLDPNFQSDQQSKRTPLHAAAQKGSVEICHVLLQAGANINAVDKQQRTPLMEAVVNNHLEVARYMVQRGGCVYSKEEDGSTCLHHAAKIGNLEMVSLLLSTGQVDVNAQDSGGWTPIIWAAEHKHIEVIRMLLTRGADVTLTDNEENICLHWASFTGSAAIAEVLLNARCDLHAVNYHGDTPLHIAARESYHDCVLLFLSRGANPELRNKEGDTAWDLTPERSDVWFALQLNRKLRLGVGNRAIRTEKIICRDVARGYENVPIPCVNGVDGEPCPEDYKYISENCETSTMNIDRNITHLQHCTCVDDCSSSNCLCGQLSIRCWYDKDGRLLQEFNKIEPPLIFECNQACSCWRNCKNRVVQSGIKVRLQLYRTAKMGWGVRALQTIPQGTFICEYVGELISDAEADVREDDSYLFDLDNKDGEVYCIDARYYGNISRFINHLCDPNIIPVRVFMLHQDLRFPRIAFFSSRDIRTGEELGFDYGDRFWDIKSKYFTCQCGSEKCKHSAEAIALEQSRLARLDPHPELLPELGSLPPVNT
Structure (SMILES),"activity, negative = inhibition",Potency
Cn1nnnc1SCC(=O)NC(C)(C)C,inactive: 1.87% [at 102 µM],–
Cc1ccc(NCc2nnc(SCC(=O)N3CCCc4ccccc43)o2)c(C)c1,–,"inconclusive: 39.8 µM [inhibitor, single point]"
COc1ccccc1CNC(=O)c1ccc2c(=O)n3c(nc2c1)CCCCC3,inactive: -3.09% [at 102 µM],–
COC(=O)Cc1c(C)nc2nc(Cc3ccccc3)[nH]n2c1=O,inactive: 6.97% [at 12.7 µM],–
O=C(CCC1CCCNC1)c1ccccc1 (centres undefined),–,active: 50.1 µM
COc1cccc(CSc2nnc(-c3ccco3)n2C)c1,–,"inconclusive: 89.1 µM [inhibitor, partial curve, poor fit]"
Cc1ccn2c(-c3n[nH]c(=S)n3C)c(C)nc2c1,–,active: 8.91 µM
O=C1/C(=C/c2ccccc2Cl)SC(=S)N1CCC(=O)N1CCCCC1CCO (centres undefined),–,"inconclusive: 89.1 µM [inhibitor, single point]"
CC1=C(C(=O)Nc2ccccc2)C(CC(C)C)n2nc(SCc3ccccc3C)nc2N1 (centres undefined),–,"inconclusive: 0.708 µM [inhibitor, partial curve, poor fit]"
O=C(c1cc2c(s1)-c1ccccc1OC2)N1CCN(c2ccccc2)CC1,–,inactive and active: 1.12 µM
O=C(N=C1c2ccccc2CN1c1ccc(F)c(Cl)c1)c1cccnc1Cl,–,"inconclusive: 22.4 µM [inhibitor, single point]"
Cc1c2cnn(-c3ccccc3)c(=O)c2c(C)n1CCCC(=O)N1CCN(C)CC1,–,active: 79.4 µM
Cn1ccnc1/C(=N\NC(=O)c1ccccc1)c1cccc([N+](=O)[O-])c1,–,active: 39.8 µM
O=C(NCCc1ccc(Cl)cc1)C1CCCN(S(=O)(=O)c2cnc[nH]2)C1 (centres undefined),–,"inconclusive: 89.1 µM [inhibitor, single point]"
COc1cccc(OCC(O)CN2CCC(CN3C(=O)c4cccc5cccc(c45)C3=O)CC2)c1 (centres undefined),–,"inconclusive: 79.4 µM [inhibitor, partial curve]"
N#CCOc1ccc2oc(-c3ccco3)cc(=O)c2c1,inactive: -42.3% [at 102 µM],–
Cc1ccccc1OCC(=O)OCC(=O)c1cc(C)n(C2CC2)c1C,–,"inconclusive: 79.4 µM [inhibitor, single point]"
O=[N+]([O-])c1ccc(OCc2cccc(COc3ccc([N+](=O)[O-])cc3)n2)cc1,inactive: 5.26%,–
COc1cc(C(C(=O)NCC2CCCO2)N(C(=O)Cn2nnc3ccccc32)c2ccc(C(C)=O)cc2)ccc1O (centres undefined),–,"inconclusive: 79.4 µM [inhibitor, single point]"
Cc1nc(-c2ccc(Cl)cc2)sc1CCNC(=O)c1cccs1,inactive: 7.16%,–
Cc1ccc(Nc2c(-c3ccc(O)cc3)nc3cccc(C)n23)cc1,–,"inconclusive: 4.47 µM [inhibitor, single point]"
Cc1cccc(-c2oc3ccc(-c4ccc5c(c4)OCO5)cc3c2C(=O)OCc2ccc(O)cc2)c1,–,"inconclusive: 79.4 µM [inhibitor, single point]"
Cc1cc(C(=O)COc2ccccc2C(N)=O)c(C)n1C,inactive: -20.3% [at 102 µM],–

Structure (SMILES),"activity, negative = inhibition",Potency
COc1ccc(C(=O)N/C(=C\c2ccccc2)C(=O)NC(CCSC)C(=O)O)cc1 (centres undefined),–,active: 56.2 µM
COc1ccccc1NS(=O)(=O)c1cc(NC(=O)C(C)NC(N)=O)ccc1N1CCCC1 (centres undefined),–,"inconclusive: 0.794 µM [inhibitor, partial curve, poor fit]"
CCOc1ccc(C2C(C#N)=C(N)Oc3n[nH]c(C)c32)cc1OC(=O)C1CC1 (centres undefined),–,"inconclusive: 79.4 µM [inhibitor, single point]"
Cc1ccc(S(=O)(=O)c2c(Nc3cc(F)ccc3F)sc(C(=O)c3ccc(F)cc3)c2N)cc1,inactive: -6.44%,–
CC(NC(=O)c1ccc(F)cc1)c1ccccc1 (centres undefined),–,"inconclusive: 1.78 µM [inhibitor, full curve, poor fit]"
COc1ccc(-c2c(C)nn(-c3ccccc3)c2N)cc1,inactive: -12.9%,–
CCOC(=O)c1c(CN2CCN(CCO)CC2)n(C)c2cc(Br)c(OC)cc12,inconclusive: -59.7% [inhibitor],–
O=C(CCN1CCc2ccccc21)c1ccc2c(c1)OCCO2,inconclusive: -59.8% [inhibitor],–
Cc1ccc(CN(Cc2ccc(C)o2)C(=S)NCC(=O)O)cc1,–,"inconclusive: 15.8 µM [inhibitor, single point]"
C=CCNC(=O)c1ccccc1NC(=O)Cc1ccccc1[N+](=O)[O-],–,"inconclusive: 39.8 µM [inhibitor, partial curve, poor fit]"
O=C1N=C(N2CCN(c3ccccc3)CC2)S/C1=C\c1cn[nH]c1-c1ccccc1,inactive: -13.7%,–
O=C(CNC(=O)c1ccccc1Cl)N/N=C/c1ccc2c(c1)OCO2,inactive: 52.4% [at 102 µM],–
O=C(/C=C/c1ccccc1)N/C(=C/c1ccccc1)C(=O)Nc1cccc(C(=O)O)c1,–,"inconclusive: 79.4 µM [inhibitor, partial curve]"
Cc1ccc(-n2c(C)nnc2SCC(=O)N(C)c2c(N)n(Cc3ccccc3)c(=O)[nH]c2=O)cc1,–,"inconclusive: 3.16 µM [inhibitor, partial curve, poor fit]"
CC12CCC(=O)N1C(C(=O)N1CCN(S(=O)(=O)c3ccc(Br)cc3Cl)CC1)CS2 (centres undefined),–,"inconclusive: 79.4 µM [inhibitor, partial curve]"
Cc1ccc(NC(=O)CSc2nc(-c3ccco3)nc3cc(=O)[nH]n23)cc1C,–,"inconclusive: 25.1 µM [inhibitor, single point]"
CCOC(=O)c1ccc(NC(=O)COc2ccccc2CNCCc2ccccc2)cc1,inactive: -50.5% [at 102 µM],–
CC(C)(O)/C=C1/Oc2ccccc2C1N1CCCCC1 (centres undefined),–,active: 50.1 µM
CCOC(=O)c1ccc2c(c1)n(CC)c(C)[n+]2CC,–,"inconclusive: 70.8 µM [inhibitor, single point]"
COC(=O)C1=C(CN2CCc3ccccc32)NC(=O)NC1c1cc(C)ccc1C (centres undefined),–,"inconclusive: 3.16 µM [inhibitor, partial curve, poor fit]"
O=C(CSc1nnc(-c2ccccc2O)o1)NC1CCCCC1,–,"inconclusive: 39.8 µM [inhibitor, single point]"
CCN(CC)CCCNC(=O)c1ccc(Cl)c(S(=O)(=O)Nc2ccccc2OC)c1,–,"inconclusive: 35.5 µM [inhibitor, partial curve, poor fit]"
Cc1ccc(C)c(CSc2nc3ccncc3n2CC(=O)Nc2ccc(N(C)C)cc2)c1,–,active: 5.01 µM

Structure (SMILES),"activity, negative = inhibition",Potency
NC(=O)[C@H]1CC2(CC(c3cccc(NC(=O)CC(c4ccccc4)c4ccccc4)c3)=NO2)CN1C(=O)c1ccccc1C(=O)c1ccccc1 (some centres undefined),–,"inconclusive: 31.6 µM [inhibitor, single point]"
CN(C)CCCNC(=O)c1ccc(Cl)c(S(=O)(=O)N(C)c2ccccc2)c1,–,"inconclusive: 3.98 µM [inhibitor, full curve, poor fit]"
CCn1cc(SCC(=O)NCc2ccc3c(c2)OCO3)c2ccccc21,–,"inconclusive: 35.5 µM [inhibitor, partial curve, poor fit]"
O=C(/C=C/c1ccccc1)NC(=O)c1ccccc1O,–,"inconclusive: 39.8 µM [inhibitor, single point]"
COc1cccc(N2CC(NC(=O)c3cccc(OC)c3OC)CC2=O)c1 (centres undefined),–,"inconclusive: 5.01 µM [inhibitor, single point]"
COC(=O)c1ccc(NC(=S)NCC2CC2)cc1,inactive: 0.224% [at 12.7 µM],–
O=C(c1ccncc1)N1CCC2(CC1)CN(c1cccc(-c3ccccc3)c1)C2,inactive: 29.2% [at 12.7 µM],–
CCN(CC)CCOC(=O)C1(c2ccc([N+](=O)[O-])cc2)CCCC1,–,inactive and active: 12.6 µM
O=C(c1cccs1)N1CCN(Cc2ccc3c(c2)OCO3)CC1,–,active: 56.2 µM
COc1ccc(CCNC(=O)COC(=O)CCC(=O)c2ccc(F)cc2)cc1,inactive: 11.7% [at 102 µM],–
Fc1ccccc1Cn1c(-c2ccccc2)nc2ccccc21,inactive: 36.4%,–
Cc1cc(C)n(-c2nc(C)nc(NCc3ccccc3)n2)n1,–,"inconclusive: 44.7 µM [inhibitor, partial curve, poor fit]"
COc1ccc(CCC(=O)OCC(=O)NCc2ccc3c(c2)OCO3)cc1,inactive: 0.475%,–
COCCNC(=O)C1CCC(Cn2c(=S)[nH]c3ccccc3c2=O)CC1 (centres undefined),inconclusive: -74% [inhibitor],–
O=C(NCCN1CCCC1)c1ccc2c(c1)N(Cc1ccc(F)cc1)C(=O)c1ccccc1S2=O (centres undefined),–,active: 39.8 µM
Cc1ccc(N2C(=O)CC(Nc3ccc(Cl)c(S(=O)(=O)N(C)C)c3)C2=O)c(C)c1 (centres undefined),–,"inconclusive: 39.8 µM [inhibitor, full curve, poor fit]"
O=C(Nc1ccc(Cl)cc1)N1CCN(c2ccccc2)CC1,inactive: 8.18%,–
Cc1cccc(C)c1NC(=S)N/N=C/c1ccc(OCCC(C)C)cc1,–,"inconclusive: 25.1 µM [inhibitor, single point]"
CCc1cc(=O)[nH]c(SCCc2ccccc2)n1,–,"inconclusive: 89.1 µM [inhibitor, single point]"
CC(c1ccccc1)n1cc(C(=O)NCC2COc3ccccc3O2)nn1 (centres undefined),–,"inconclusive: 5.62 µM [inhibitor, single point]"
COc1cc(/C=C2\C(=N)N3N=C(S(C)(=O)=O)SC3=NC2=O)cc(OC)c1OCCOc1ccccc1C,–,"inconclusive: 50.1 µM [inhibitor, partial curve, poor fit]"
CCC(C)(C)NC(=O)C(c1cccn1C)N(C(=O)Cn1nnc2ccccc21)c1ccc(OC)cc1OC (centres undefined),–,"inconclusive: 25.1 µM [inhibitor, single point]"
CC(=O)N[C@H]1[C@H](O[C@@H]2c3ccc(c(Cl)c3)Oc3cc4cc(c3O[C@@H]3O[C@H](CO)[C@@H](O)[C@H](O)C3C)Oc3ccc(cc3Cl)C[C@H]3NC(=O)[C@@H](N)c5ccc(O)c(c5)Oc5cc(O)cc(c5)[C@H](NC3=O)C(=O)N[C@H]4C(=O)N[C@H]3C(=O)N[C@@H]2C(=O)N[C@@H](C(=O)O)c2cc(O)cc(O[C@H]4O[C@H](CO)[C@@H](O)C(O)[C@@H]4O)c2-c2cc3ccc2O)O[C@H](CO)[C@@H](O)[C@@H]1O (some centres undefined),inactive: 7.31% [at 5.15 µM],–
